Results reported in PubChem BioAssay AID504706 (National Center for Advancing Translational Sciences (NCATS), 2011).
The campaign covered roughly 320,000 compounds. About 200 (0.062%) were called active. This list was built around the results that the source calls inconclusive (neither active nor inactive); the mix of calls is not that of the screen. Calls come from the whole dose curve; as a rule, active = well fitted activation curve with a large enough effect; inconclusive = small, poorly fitted or top-dose-only effect; inactive = no such curve, though single readings can be large or run the other way. Potencies of inconclusive entries are left out as doubtful fits.

assay: qHTS assay for re-activators of p53 using a Luc reporter; conditions: H1299 p53-A138V BP100-luciferase reporter, luminescence, 24 h; series mostly up to 92.2 µM; activity change, positive = activation: at the top concentration; note: nearly all actives have a fitted effect of over 45% in size; for activity change, positive = activation: % of control where 0% means no effect
Method in brief: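 H1299 (p53-null), stable ts p53-A138V + BP100-Luc; 1000 cells/well, Opti-MEM/10% FBS; cpd 4 pt, 1:5; 24 h, 37 deg C, 5% CO2; detection reagent 10 min RT; luminescence.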
Potency is the fitted concentration of half-maximal effect; tags give direction and shape of the fitted curve.

| Compound | Potency | activity change, positive = activation |
| --- | --- | --- |
| Cn1c(=O)c(-c2cc(Br)ccc2N)nc2ccccc21 | inconclusive [activator, partial curve, poor fit] |  |
| COc1ccc(Cl)cc1C(=O)Nc1ccc(NC(=O)c2ccco2)cc1 |  | inactive: -4.64% |
| CN1CCN(c2ccc(NC(=O)c3ccc4c(c3)OCCO4)cc2)CC1 | inconclusive [activator, partial curve, poor fit] |  |
| CC(Cc1ccccc1)NC(=O)CN1C(=O)c2ccccc2S1(=O)=O (stereo not given) | inconclusive [activator, partial curve, poor fit] |  |
| COC(=O)c1ccc(CSc2nc3ccccc3s2)o1 | inconclusive [activator, partial curve, poor fit] |  |
| COC(=O)c1ccc(NC(=S)NC2CC3CCC2C3)cc1 (stereo not given) | inconclusive [activator, partial curve, poor fit] |  |
| Cc1ccccc1SCC(=O)OCC(=O)Nc1sccc1C(N)=O | inconclusive [activator, partial curve, poor fit] |  |
| O=C(NCc1cccs1)NC1CCCCC1 | inconclusive [activator, single point] |  |
| CCCOc1ccc(C(=O)Nc2ccc(S(=O)(=O)Nc3onc(C)c3C)cc2)cc1 |  | inactive: 1.66% |
| Cc1c(C(=O)Nc2nc(-c3ccccn3)cs2)oc2ccccc12 | inconclusive [activator, full curve, poor fit] |  |
| Oc1c(/C=N/Nc2cccc3cccnc23)ccc2ccccc12 | inconclusive [activator, partial curve, poor fit] |  |
| CCCC(=O)n1nc(-c2ccc(Cl)cc2)nc1SC | inconclusive [activator, full curve, poor fit] |  |
| Oc1ccc(Nc2nc(-c3cccnc3)cs2)cc1 | inconclusive [activator, partial curve, poor fit] |  |
| CCOC(=O)c1ccc(NC(=O)N2CCCCC2)cc1 | inconclusive [activator, full curve, poor fit] |  |
| CCn1nc(C)cc1-c1nnc(Sc2ncc([N+](=O)[O-])s2)n1C |  | inactive: -14.4% |
| CC(=O)C1=C(C)N(Cc2ccccc2)C(=O)N[C@H]1c1cccs1 |  | inactive: 7.07% |
| CC(=O)c1ccc(OC(C)C(=O)NC2CCCCC2C)cc1 (stereo not given) | inconclusive [activator, partial curve, poor fit] |  |
| Cn1c(=O)c2c(ncn2CC(=O)N2CCOCC2)n(C)c1=O |  | inactive: -24% |
| CC(OC(=O)c1cccnc1Cl)C(=O)Nc1ccc2c(c1)OCO2 (stereo not given) |  | inactive: 3.32% |
| COc1ccc(CCC(=O)OCC(=O)N2CCN(S(=O)(=O)c3ccc(C)cc3C)CC2)cc1 | inconclusive [activator, partial curve, poor fit] |  |
| CC(Cc1cccs1)NC(=O)c1cccc(Cl)c1 (stereo not given) | inconclusive [activator, partial curve, poor fit] |  |
| CCOc1ccc(N/C=C/C(=O)c2ccc(OC)c(OC)c2)cc1 | inconclusive [activator, single point] |  |
| CCOC(=O)C1(Cc2ccccc2Cl)CCN(C(=O)CN2CCOC2=O)CC1 |  | inactive: 6.27% |
| COCC(=O)Nc1ncc(S(=O)(=O)c2ccc([N+](=O)[O-])cc2)s1 |  | inactive: 3.31% |

| Compound | Potency | activity change, positive = activation |
| --- | --- | --- |
| Cc1ccc(/C=C/C(=O)Nc2cccnc2)o1 | inconclusive [activator, partial curve, poor fit] |  |
| c1ccc(C2=Nc3ccccc3NC(c3ccccc3)C2)cc1 (stereo not given) | inconclusive [activator, partial curve, poor fit] |  |
| O=C(N/N=C/C=C\c1ccccc1[N+](=O)[O-])c1cc(-c2ccccc2)nc2ccccc12 |  | inactive: 11.3% |
| c1ccc(Oc2ccc(-c3ccn[nH]3)cc2)cc1 | inconclusive [activator, full curve, poor fit] |  |
| Cc1ccc(/C=N/NC(=O)c2n[nH]c3c2CCCC3)cc1 | inconclusive [activator, full curve, poor fit] |  |
| COc1ccc(S(=O)(=O)N(Cc2ccccc2)c2ccccc2C(=O)Nc2ccccc2C(=O)NCc2ccco2)cc1 |  | inactive: 0.765% |
| Cc1cc(C)nc(Nc2ccc(N3CCCC3)cc2)n1 | inconclusive [activator, partial curve, poor fit] |  |
| CCOC(=O)/C(=N\Nc1ncnc2ccccc12)c1ccc(C)cc1 | inconclusive [activator, partial curve, poor fit] |  |
| COc1ccc(NC(=O)CN(C)S(=O)(=O)c2cccs2)cc1 | inconclusive [activator, single point] |  |
| COc1cccc(NC(=O)c2ccc3c(c2)C(=O)N(CC2CCCO2)C3=O)c1 (stereo not given) | inconclusive [activator, single point] |  |
| Cc1cc(C(=O)CN2CCCCC2)c(C)n1-c1ccc(F)cc1 | inconclusive [activator, full curve, poor fit] |  |
| Nc1nc2ccccc2cc1-c1cccs1 | inconclusive [activator, partial curve, poor fit] |  |
| CCCN1C2=NCCN2c2cc(C)c(C)cc21 | inconclusive [activator, single point] |  |
| CCN(CC(=O)NC(C)C)Cc1nc2sc3c(c2c(=O)[nH]1)CCC3 |  | inactive: -0.248% |
| CCN1CCN(Cc2ccc(NC(=O)c3ccc(C)c(NC(=O)c4csc(-c5ccncc5)n4)c3)cc2C(F)(F)F)CC1 |  | inactive: -1.05% |
| COc1ccc(-c2cn(-c3ccccc3)nc2CO)cc1 | inconclusive [activator, partial curve, poor fit] |  |
| Cc1c(C(=O)/C=C/c2cccs2)oc2ccc(F)cc12 | inconclusive [activator, partial curve, poor fit] |  |
| Cc1ccc(NC(=O)c2cc(=O)[nH]c3ccccc23)cc1C | inconclusive [activator, single point] |  |
| N#Cc1nc(COc2ccccc2)oc1N1CCOCC1 | inconclusive [activator, partial curve, poor fit] |  |
| CC(=O)c1cc2c(cc1NC(=O)c1ccc(Cl)cc1)OCCO2 | inconclusive [activator, single point] |  |
| c1cncc(-c2nnc3n2N=C(c2cccs2)CS3)c1 |  | inactive: -27.7% |
| CC(=O)N1c2ccc(S(=O)(=O)NCC3CCC(C(=O)Nc4cc(C)ccn4)CC3)cc2CC1C (stereo not given) | inconclusive [activator, single point] |  |
| Cc1ccc2nc(NC(=O)CSc3nncc(=O)n3N)sc2c1 | inconclusive [activator, full curve, poor fit] |  |
| CC1CCCCN1CCCNC(=O)C1CCN(c2nnc(-n3cccc3)s2)CC1 (stereo not given) |  | inactive: -6.01% |

| Compound | Potency | activity change, positive = activation |
| --- | --- | --- |
| O=C(/C=C/c1ccccc1)NC(=S)NNC(=O)Cc1cccs1 |  | inactive: 19.1% |
| O=C(Nc1nc(-c2cccs2)c(-c2ccccc2)s1)c1ccco1 |  | inactive: 5.42% |
| CC(C)c1ccccc1NC(=S)NC(=O)C1CCCCC1 |  | inactive: 3.11% |
| COc1ccc(C(=O)NNC(=O)C(=O)Nc2ccc(C)c(Cl)c2)cc1 |  | inactive: -6.49% |
| Cc1ccnc2nc(C(=O)Nc3ccc4c(c3)OCO4)nn12 | inconclusive [activator, partial curve, poor fit] |  |
| Cc1c(C)n(Cc2ccccc2)c2ccc(C(=O)NCCCN3CCOCC3)cc12 |  | inactive: -2.22% |
| CCCCCCCOC(=O)c1ccc(OC(=O)c2cccnc2)cc1 | inconclusive [activator, partial curve, poor fit] |  |
| CCC1CCC(c2nnc(-c3ccc([N+](=O)[O-])cc3)o2)CC1 (stereo not given) | inconclusive [activator, full curve, poor fit] |  |
| N#Cc1nc(Cc2ccccc2)oc1N1CCC(C(N)=O)CC1 |  | inactive: 1.59% |
| Oc1oc(-c2ccco2)nc1C=Nc1cccc(Cl)c1 |  | inactive: 1.84% |
| CS(=O)(=O)N(CC(=O)NCc1ccccc1Cl)C1CCCCC1 | inconclusive [activator, partial curve, poor fit] |  |
| CCOc1ccc(C(=O)Nc2ccc(N3CCN(C)CC3)cc2)cc1Br |  | inactive: 11.8% |
| CCSc1nnc(-c2ccc(OC)cc2)o1 | inconclusive [activator, full curve, poor fit] |  |
| Cc1cc2n(n1)C(c1ccccc1)CC(c1ccc(Br)cc1)=N2 (stereo not given) | inconclusive [activator, full curve, poor fit] |  |
| c1ccc2sc(NN=C3CCCC3)nc2c1 | inconclusive [activator, partial curve, poor fit] |  |
| COc1ccc(N=Nc2ccc(N)nc2N)cc1 | inconclusive [activator, partial curve, poor fit] |  |
| O=C(Nc1ccc(Cl)cc1)OCc1cncs1 | inconclusive [activator, single point] |  |
| COc1ccc(-c2coc3cc(OC4OC(CO)C(O)C(O)C4O)cc(O)c3c2=O)cc1 (stereo not given) | inconclusive [activator, partial curve, poor fit] |  |
| FC(F)(F)c1cccc(-n2cc(-c3ccccc3)[nH]c2=S)c1 |  | inactive: 3.02% |
| C/C(=N\Nc1ncnc2sc(C)c(C)c12)c1ccccn1 | inconclusive [activator, partial curve, poor fit] |  |
| O=C(NCc1ccc(F)cc1)C1CCCN(S(=O)(=O)c2ccc(-n3cnnn3)cc2)C1 (stereo not given) |  | inactive: -3.59% |
| COc1ccc(NC(=O)c2ccccc2O)c(OC)c1 | inconclusive [activator, partial curve, poor fit] |  |
